Measured values as given in the supplement of paper PMC9446081.
Hit rate of the full screen: of about 39,000 compounds, about 220 (0.56%) showed activity. The list shows a part of the results.

Tested on: Escherichia coli K-12 BW25113
Experiment: relative growth (OD600 normalised to plate interquartile mean) (fraction); higher = less growth inhibition, active = 0.2 or less
Conditions: 50 µM; LB; incubation time: overnight (16-24 h)
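Also: static incubation at 37 °C against the wild-type strain, values averaged over two biological replicates.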

Structure (SMILES)	relative growth
C[C@H]1CN([C@@H](C)CO)S(=O)(=O)c2ccc(Br)cc2O[C@H]1CN(C)S(=O)(=O)c1ccccc1	inactive: 1
C[C@H](CO)N1C[C@H](C)[C@H](CN(C)S(C)(=O)=O)Oc2ccc(NC(=O)CCCCCC(=O)Nc3ccccc3N)cc2C1=O	inactive: 1.01
C[C@@H]1CN([C@H](C)CO)C(=O)c2cc(NC(=O)Cn3cnnn3)ccc2O[C@H]1CN(C)Cc1ccc(C(F)(F)F)cc1	inactive: 0.995
C[C@@H]1CCCCO[C@H](CN(C)C(=O)Cc2ccccc2)[C@H](C)CN([C@H](C)CO)C(=O)c2cc(NS(=O)(=O)c3ccc(Cl)cc3)ccc2O1	inactive: 1.02
C[C@H](CO)N1C[C@H](C)[C@H](CN(C)C(=O)CCN2CCCCC2)Oc2ncc(C#CCN(C)C)cc2C1=O	inactive: 0.999
C[C@H]1CN([C@@H](C)CO)C(=O)c2cc(NC(=O)CCCCCC(=O)Nc3ccccc3N)ccc2O[C@@H]1CN(C)Cc1ccccc1	inactive: 1.01
O=C(C[C@H]1C=C[C@H](NC(=O)c2cccnc2)[C@@H](CO)O1)NCc1ccncn1	inactive: 0.995
CC(C(=O)O)C(=O)O	inactive: 0.981
C[C@H]1CCCCO[C@@H](CN(C)C(=O)Nc2ccccc2)[C@@H](C)CN([C@@H](C)CO)C(=O)c2cc(NC(=O)Nc3ccc(F)cc3)ccc2O1	inactive: 1.02
O=C(C[C@H]1C=C[C@H](NC(=O)Cc2ccccn2)[C@H](CO)O1)NCCc1ccncc1	inactive: 0.99
C[C@@H]1CN([C@H](C)CO)C(=O)Cc2cc(NC(=O)Nc3ccc4c(c3)OCO4)ccc2O[C@H]1CN(C)Cc1ccc(-c2ccccc2)cc1	inactive: 1.02
Cc1noc(C)c1S(=O)(=O)N(C)C[C@H]1OCc2cnnn2CCCC(=O)N([C@@H](C)CO)C[C@H]1C	inactive: 1.01
COc1cccc(S(=O)(=O)Nc2ccc3c(c2)[C@@H]2C[C@@H](CC(=O)N4CCCCC4)O[C@H](CO)[C@@H]2O3)c1	inactive: 0.984
C[C@H](CO)N1C[C@H](C)[C@H](CN(C)C(=O)c2ccccc2F)Oc2cc(C#CCN(C)C)ccc2S1(=O)=O	inactive: 1.04
Cn1cc(CN2CCn3nnc(CO)c3C2)cn1	inactive: 0.986
C[C@H]1CN([C@@H](C)CO)C(=O)Cc2cc(NC(=O)NC3CCCCC3)ccc2O[C@@H]1CN(C)C(=O)Nc1cccc2ccccc12	inactive: 0.967
C[C@@H]1CN([C@H](C)CO)C(=O)c2cc(NS(=O)(=O)c3ccccc3)ccc2O[C@H]1CN(C)Cc1ccc(-c2ccccc2)cc1	inactive: 1.02
CC12C=CC(=O)C=C1CCC1C2C(O)CC2(C)C1CCC2(O)C(=O)COC(=O)CCC(=O)O (centres undefined)	inactive: 0.912
C=C1C(=O)OC2C1CCC(C)=CCCC1(C)OC21 (centres undefined)	inactive: 0.976
CN1C(=O)c2cc(NC(=O)Cc3cccs3)ccc2OC[C@H]2O[C@@H](CC(=O)NCCCN3CCOCC3)CC[C@@H]21	inactive: 0.983

Structure (SMILES)	relative growth
C[C@@H]1CN([C@H](C)CO)S(=O)(=O)c2ccc(C#Cc3ccc(F)cc3)cc2O[C@@H]1CN(C)S(C)(=O)=O	inactive: 1.02
C[C@H](CO)N1C[C@H](C)[C@@H](CN(C)Cc2ccc(Cl)c(Cl)c2)Oc2ccc(NC(=O)NC3CCCCC3)cc2CC1=O	inactive: 1.02
COc1ccc(S(=O)(=O)N(C)C[C@@H]2Oc3ccc(NS(=O)(=O)c4ccccc4)cc3C(=O)N([C@@H](C)CO)C[C@H]2C)cc1	inactive: 1.04
C[C@@H]1CCCCO[C@@H](CN(C)S(=O)(=O)c2ccccc2)[C@H](C)CN([C@@H](C)CO)C(=O)c2cc(NC(=O)NC3CCCCC3)ccc2O1	inactive: 1.01
Cc1noc(C)c1NC(=O)Nc1ccc2c(c1)C(=O)N([C@H](C)CO)C[C@H](C)[C@@H](CN(C)C(=O)C1CCCCC1)OCCCC[C@H](C)O2	inactive: 1.03
COC(=O)c1ccc(C(=O)OC)nc1	inactive: 1.02
C=CC(=O)NCCN1CCCCC1	inactive: 1.04
O=C(C[C@H]1C[C@@H]2c3cc(NC(=O)NC4CCCC4)ccc3O[C@@H]2[C@H](CO)O1)NCCN1CCCCC1	inactive: 0.969
C[C@@H]1CN([C@@H](C)CO)C(=O)c2cc(NS(C)(=O)=O)ccc2O[C@@H](C)CCCCO[C@@H]1CN(C)C(=O)Nc1ccc(C(F)(F)F)cc1	inactive: 0.957
C[C@@H]1CCCCO[C@@H](CN(C)CC2CCCCC2)[C@H](C)CN([C@@H](C)CO)C(=O)c2cc(NC(=O)NC3CCCCC3)ccc2O1	inactive: 0.972
Cc1noc(C)c1NC(=O)N(C)C[C@@H]1Oc2cc(Br)ccc2S(=O)(=O)N([C@@H](C)CO)C[C@H]1C	inactive: 1.01
COc1ccc(NC(=O)Nc2ccc3c(c2)C(=O)N([C@@H](C)CO)C[C@@H](C)[C@H](CN(C)Cc2ccc(C(F)(F)F)cc2)OCCCC[C@@H](C)O3)cc1	inactive: 0.97
Cc1noc(C)c1S(=O)(=O)Nc1ccc2c(c1)C(=O)N([C@H](C)CO)C[C@H](C)[C@@H](CN(C)Cc1ccccc1)O2	inactive: 1
COc1ccc(NC(=O)N(C)C[C@@H]2OCCCC[C@H](C)Oc3ccc(NS(=O)(=O)c4ccc(F)cc4)cc3C(=O)N([C@H](C)CO)C[C@@H]2C)cc1	inactive: 1.01
C[C@H]1CN([C@@H](C)CO)C(=O)Cc2cc(NS(=O)(=O)c3ccc(Cl)cc3)ccc2O[C@H]1CN(C)C(=O)Nc1ccc(C(F)(F)F)cc1	inactive: 1.01
COc1ccc(S(=O)(=O)N(C)C[C@H]2OCCCC[C@@H](C)Oc3ccc(NC(=O)Nc4ccc(F)cc4)cc3C(=O)N([C@@H](C)CO)C[C@H]2C)cc1	inactive: 1.01
C[C@@H]1CN([C@H](C)CO)C(=O)c2cc(NC(=O)Nc3cccc4ccccc34)ccc2O[C@@H]1CN(C)S(=O)(=O)c1ccccc1	inactive: 1.05
C[C@@H]1CN([C@@H](C)CO)C(=O)c2cc(NS(=O)(=O)c3ccc(F)cc3)ccc2O[C@@H](C)CCCCO[C@@H]1CN(C)C(=O)CCC(F)(F)F	inactive: 1
Cc1ccc(S(=O)(=O)N(C)C[C@H]2OCCCC[C@@H](C)Oc3ccc(NC(=O)c4ccccc4)cc3C(=O)N([C@H](C)CO)C[C@@H]2C)cc1	inactive: 1.01
